The text below walks through data of PubChem BioAssay (NCI).

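Growth conditions: 96-well plates. Treatment: test compound, 48 hours, 5 concentrations. Analysis: linear interpolation between bracketing concentrations; unreached endpoints set to highest concentration. At the GI50, growth is halved. Definition used: TGI = concentration required for complete inhibition of growth.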 Where only a bound is given, the exact number is not on record here.

This test relates to NCI-H322M lung. In words: inhibition of tumour cell growth, NCI panel, 48 h.
On to `COc1cc2c3c(n(CCCNC4CCC4)c(=O)c2cc1OC)-c1cc2c(cc1C3=O)OCO2`, for which the GI50 was 1.62 µM and the TGI was 4.14 µM.

On to `O=C(NNc1nc2cc(F)c(F)cc2n2cccc12)c1ccncn1`, for which the GI50 was 0.239 µM and the TGI was determined as 6.43 µM.

`CCNCc1c(-c2cccc(OC(F)(F)F)c2)[nH]c2ccc(N3CCCC3)cc2c1=O`: the GI50 is 4.17 µM and the TGI was found to be 52.9 µM.

As for `O=C1[C@@H]2Cc3c([nH]c4ccccc34)[C@H](c3c(Cl)cccc3Cl)N2C(=O)CN1C1CCN(Cc2ccccc2)CC1`, the GI50 is 4.49 µM and the TGI is greater than 14.3 µM.

Take `O=C(Nc1ccc(Br)cc1)Nc1nc2ccc([N+](=O)[O-])cc2s1`: the GI50 was 1.92 µM and the TGI came out at 5.91 µM.

Consider `CCNC(=O)N1CCc2cc(OC)c(OCCc3ccc(OC)c(N)c3)cc2C1c1ccc(C)cc1C` (configuration not stated), for which the GI50 was 0.626 µM and the TGI is greater than 100 µM.
